We go through 91 compounds from PubChem BioAssay AID463173 (ICCB-Longwood Screening Facility, Harvard Medical School, 2010).

Among all 52,000 compounds or so, about 1,700 (3.3%) were called active. Cut-off read from the data, not from the text of the source: active = survival mostly below about 52% (no sharp cut-off); inactive = mostly above about 56%. Some of the results follow.

In this experiment the test system is Wild type. In words: growth inhibition of S. aureus wild type versus tarO mutant, primary screen, teichoic acid synthesis inhibitors, RN4220, OD600 (AID 463173). As to conditions: S. aureus RN4220 wild type/DeltatarO growth, OD600, 18 h, hits give low values, screened at 18.75 µg/mL (by protocol).
As to `Cc1ccc(C(C(=O)NCC2CCCO2)N(Cc2ccc3c(c2)OCO3)C(=O)c2ccc(-c3ccccc3)[nH]2)o1` (stereo unspecified), the survival was inactive: 81%.

On to `COc1ccc(NC(=O)C(NS(=O)(=O)c2cccc3nsnc23)C(C)C)cc1` (stereo unspecified), for which the survival is inactive: 82%. The figure for `NC(=O)CC(c1ccccc1)c1ccc2c(c1)OCO2` (stereo unspecified) is inactive: 117%; for `CCCC(CCC)C(=O)Nc1ccc(NC(=O)c2ccco2)cc1` it is inactive: 110%. The value for `CCOC(=O)c1c(NC(=O)c2cc(-c3ccc(Br)cc3)on2)sc(C(C)=O)c1C` was inactive: 105%; that for `O=C(c1ccc(F)cc1)c1cn(Cc2ccccc2)c2cc3c(cc2c1=O)OCO3` was inactive: 73%; that for `Cc1oc(-c2ccc(C(=O)Nc3ccc(F)cc3)cc2)nc1COc1ccccc1` was inactive: 93%. As to `COc1ccc(C2=CC(c3cc(Br)ccc3F)n3c(nc4ccccc43)N2)cc1` (stereo unspecified), the survival was inactive: 82%. For `O=C(Nc1c(C(=O)N2CCN(c3ccccc3F)CC2)oc2ccccc12)c1cccc(F)c1`, the survival was inactive: 83%. With `Cn1nnc(NC(=O)COc2ccccc2)n1`, the survival was inactive: 99%. Consider `O=C(NCC(=O)N1CCCCC1)c1ccccc1`, for which the survival was inactive: 100%.

Consider `CC1CCCN(c2cc3c(cc2F)c(=O)c(S(=O)(=O)c2cccc(Cl)c2)cn3Cc2ccccc2)C1` (stereo unspecified), for which the survival was inactive: 63%. The value for `O=C(COc1ccccc1Cl)Nc1ccc(-c2nc3ccccc3s2)cc1` was inactive: 81%; that for `O=C(NCCCc1ccccc1)Nc1c[nH]c2ccccc2c1=O` was inactive: 108%; that for `COc1ccc(CCNC(=O)C(=O)NCC(c2ccco2)S(=O)(=O)c2ccc(C)cc2)cc1` (stereo unspecified) was inactive: 159%. Turning to `CC(C)NC(=O)c1ccc(Cn2c(SCc3ccc(F)cc3)nc3cccnc32)cc1`, the survival was inactive: 65%. The value for `O=C(CCn1c(=O)c2cccn2c2cccnc21)N1CCN(c2cccc(C(F)(F)F)c2)CC1` was inactive: 45%; that for `Cc1cccc(CS(=O)(=O)c2ncc(Cl)c(C(=O)Nc3nnc(C(C)C)s3)n2)c1` was inactive: 46%. `Cc1ccc(NC(=O)C2CCCN(S(=O)(=O)c3c(C)n[nH]c3C)C2)c(C)c1` (stereo unspecified): the survival is inactive: 124%. The value for `COc1ccc(OC)c(/C=C/c2nc3ccccc3c(=O)n2-c2ccc(F)c(Cl)c2)c1` was inactive: 74%; that for `COCc1nnc(NC(=O)c2cc(OC)c(OC)c(OC)c2)s1` was inactive: 90%. The figure for `N#Cc1ccc(-c2ccc(F)cc2)n(CC(=O)N2CCCC2)c1=O` is inactive: 131%; for `O=c1oc2ccccc2cc1-c1nnc(-c2ccncc2)o1` it is inactive: 112%. Regarding `CCC(C(=O)Nc1cc(C)ccc1C)n1c(=O)c(C(F)(F)F)nc2ccccc21` (stereo unspecified), the survival is inactive: 99%. The figure for `CCOC(=O)C1=C(O)/C(=C\c2sccc2C)N=C1C` is inactive: 119%; for `COc1ccc(C(=O)/C=C/c2cn(CC(O)CN3CCc4ccccc43)c3ccccc23)cc1OC` (stereo unspecified) it is inactive: 87%; for `C=CCC(O)(CC=C)C(C)N` (stereo unspecified) it is inactive: 114%. The value for `CC(NCc1ccc(F)cc1)C(=O)NC1CCCCC1` (stereo unspecified) was inactive: 106%.

For the compound `COc1cccc(CNS(=O)(=O)c2cnc(N)nc2)c1`, the survival is inactive: 57%. The figure for `O=C(O)CSCC(=O)Nc1ccccc1C(F)(F)F` is inactive: 109%. The figure for `COc1cc(OC)cc(C(=O)Nc2ccc(-c3nc4ccccc4s3)cc2C)c1` is inactive: 95%.

In the case of `Cc1cc(C)n(-c2nc(C)c(C)c(=O)n2CC(=O)Nc2ccc([N+](=O)[O-])cc2)n1`, the survival is inactive: 73%. The figure for `COCC(=O)n1nc(-c2ccco2)nc1NCc1ccccc1Cl` is inactive: 100%; for `FC(F)(F)COc1nc(OCC(F)(F)F)nc(OCC(F)(F)F)n1` it is inactive: 103%. The figure for `COc1ccc(CCNC(=O)c2ccc3c(c2)N(Cc2ccc(F)cc2)C(=O)c2ccccc2S3(=O)=O)cc1OC` is inactive: 142%. Regarding `CCc1nn(CC(=O)NCc2ccco2)c(=O)c2cc3c(OC)cccc3n12`, the survival is inactive: 98%. For `C=CCc1cccc2cc(-c3nc4ccc(C)cc4[nH]3)c(=O)oc12`, the survival was active: -3%. For `CCOC(=O)c1ccc(NC(=O)Cn2cc(C(=O)C3CC3)c3ccccc32)cc1`, the survival is inactive: 85%. Take `COc1ccccc1CNC(=O)CCc1c(C)c2cc3c(C)c(C)oc3cc2oc1=O`: the survival is inactive: 114%. The value for `Cc1c(C(=O)Nc2cccc(C(F)(F)F)c2)sc2nc[nH]c(=O)c12` was inactive: 73%. The value for `Cc1ccccc1Nc1c(-c2c(F)cccc2Cl)nc2ccc(Br)cn12` was inactive: 88%; that for `CCOC(=O)c1ccc(NC(=O)CCCn2c(=O)c3cccn3c3ccccc32)cc1` was inactive: 78%.

In the case of `Cc1ccc(-n2ncc3c(NCCCN4CCOCC4)ncnc32)cc1C`, the survival is inactive: 51%.

For `Cc1ccc(C)c(NC(=O)C2CCCN(c3ncnc4onc(C)c34)C2)c1` (stereo unspecified), the survival is inactive: 110%. The value for `COc1ccc(OC)c(C2=NS(=O)(=O)N(C)C(C(=O)Nc3ccc(F)cc3F)=C2)c1` was inactive: 77%; that for `N#Cc1nc(-c2ccc(COc3ccc(Cl)cc3)o2)oc1N1CCC(C(N)=O)CC1` was inactive: 49%; that for `O=C(O)CCc1ccc(-c2ccccc2)n1Cc1ccco1` was inactive: 103%. The value for `O=C(Cn1c(=O)n(-c2ccccc2)c(=O)c2c3c(sc21)CCCC3)Nc1ccc(F)cc1F` was inactive: 87%. The figure for `Cc1cc(=O)n(Cc2ccc(Cl)cc2)c2c1c(C)nn2-c1ccccc1` is inactive: 131%. For `COc1ccc(OC)c(S(=O)(=O)NCCS(=O)(=O)N2CCN(c3ccccc3)CC2)c1`, the survival was inactive: 89%.

As to `COc1cccc(CNC(=O)c2cccc(-n3c(C)nc4cccnc43)c2)c1OC`, the survival was inactive: 99%.

For the compound `O=C(NCC(c1ccco1)S(=O)(=O)c1cccs1)c1ccc(F)c(F)c1` (stereo unspecified), the survival is inactive: 78%.

On to `CCCn1c(C(=O)OC)cc2c1ccn2C`, for which the survival was inactive: 114%. The figure for `CCc1ccccc1NC(=O)N1CCCn2nc(C)cc21` is inactive: 73%; for `O=C(NCc1noc2ccccc12)N1CCN(c2ccccc2)CC1` it is inactive: 82%; for `O=C(Nc1ccc(NC(=O)C2CC23CCC3)cc1)C1CC12CCC2` (stereo unspecified) it is inactive: 118%. The value for `CC1CCN(c2nn3c(=O)c(C(=O)NC(C)C)cnc3s2)CC1` was inactive: 92%; that for `Cc1nc(-c2ccccc2)sc1-c1ccc(SCC(=O)NCc2ccccc2Cl)nn1` was inactive: 40%; that for `COc1ccc(OCC(=O)Nc2ccc(N3CCN(S(C)(=O)=O)CC3)cc2)cc1` was inactive: 110%. The value for `Cc1nn(C)c2c1c(-c1ccccc1)cc(=O)n2CC(=O)NC(C)c1ccccc1` (stereo unspecified) was inactive: 83%; that for `N#C/C(=C\c1ccco1)S(=O)(=O)c1ccc(Cl)cc1` was inactive: 117%. For the compound `CCOc1ccc(-c2cc3nc(C4CCN(C(=O)OC(C)(C)C)CC4)c(C(=O)Nc4cc(OC)ccc4OC)cn3n2)cc1`, the survival was inactive: 90%. The value for `Cc1ccc(Cl)cc1NC(=O)c1sc(-n2nc(C)c(Cc3ccc4c(c3)OCO4)c2C)nc1C` was inactive: 83%; that for `CCN1CCOC(=O)C1CC(=O)Nc1ccc(Br)cc1` (stereo unspecified) was inactive: 38%. For `O=C(Cn1c(=O)n(Cc2ccccc2)c(=O)c2sc3ccccc3c21)Nc1ccccc1`, the survival is inactive: 65%.

On to `CCCOc1ccc(C2c3c(-c4c(C)cc(C)cc4O)n[nH]c3C(=O)N2CCO)cc1` (stereo unspecified), for which the survival was inactive: 93%.

Regarding `CCCCCn1c(CN2CCN(c3ccc(OC)cc3)CC2)nc2c1c(=O)[nH]c(=O)n2C`, the survival is inactive: 81%.

Turning to `COc1ccc(-n2c(-c3ccco3)nc3c(cnn3-c3ccccc3Cl)c2=O)cc1`, the survival was inactive: 124%. The figure for `Cc1ccc(Cl)cc1NC(=O)Nc1cccc(OCc2cc(=O)n3ccccc3n2)c1` is inactive: 64%.

For the compound `Cc1cc(=O)n(Cc2ccccc2)c2c1c(C)nn2C`, the survival is active: -3%. Turning to `COc1ccc(C)cc1NC(=O)CC1NCCNC1=O` (stereo unspecified), the survival is inactive: 70%. The value for `Cc1ccc(Nc2nnc(-c3ccc(C)c(S(=O)(=O)N4CCOCC4)c3)c3ccccc23)cc1` was inactive: 90%; that for `Cc1cc(C)c2c(=O)cc(C(=O)Nc3sc4c(c3C(=O)NCC3CCCO3)CCCC4)oc2c1` (stereo unspecified) was inactive: 84%; that for `CN(C)C(=O)CN(c1ccccc1)S(=O)(=O)c1ccccc1` was inactive: 96%. Take `COCCNC(=O)c1ccc2nc(Cc3ccccc3)oc2c1`: the survival is inactive: 90%. With `CC(C)N(CCCNC(=O)Cn1ncc2c([nH]c3ccccc32)c1=O)Cc1ccccc1`, the survival was inactive: 81%. For `CCC(=O)C1=C(c2ccc(OC)c(OC)c2)N(C(=O)CC)n2c(nnc2-c2ccc(C)cc2)S1`, the survival was inactive: 74%. As for `CCOC(=O)c1ccc(NC(=O)CSc2nc3ccccc3c(=O)n2CCC(=O)NC2CCCCC2)cc1`, the survival was inactive: 77%. Take `COc1ccc(-c2nc(CS(=O)(=O)CC(=O)NCCc3ccc(C)cc3)c(C)o2)cc1`: the survival was inactive: 91%.

Regarding `CC(=O)c1ccc(N2CCN(c3ccc4cc(S(=O)(=O)N5CCCCC5)ccc4n3)CC2)cc1`, the survival is inactive: 57%.

`O=C1CCC(=O)N1C(c1ccccc1)c1ccccc1`: the survival is inactive: 104%.

For the compound `CN(C)CCCC1(O)c2ccccc2CCc2ccccc21`, the survival is inactive: 97%.

In the case of `CC(=O)c1cc(-c2ccccc2)n(CC(=O)Nc2ccc(C)c(C)c2)c1C`, the survival was inactive: 75%. With `COc1ccc(OC)c(CNS(=O)(=O)c2ccc(-c3coc(C)n3)cc2)c1`, the survival was inactive: 85%.

As to `CCOc1ccc(CNC(=O)CS(=O)(=O)c2cccc3nsnc23)cc1`, the survival was inactive: 126%. The value for `COc1ccccc1-c1nc(SCC(=O)NCc2ccccc2)c2c(=O)n(C)c(=O)n(C)c2n1` was inactive: 69%; that for `O=C(CSC1=NC2CCCCC2N1)N1CCOCC1` (stereo unspecified) was inactive: 99%; that for `COc1ccccc1-c1noc(-c2ccc(NC3CCCC3)c([N+](=O)[O-])c2)n1` was inactive: 67%. As for `Cc1cc2nc(-c3ccc(NC(=O)c4ccccc4F)cc3)oc2cc1C`, the survival was inactive: 78%. The value for `N#CC1(c2ccccc2)CCCN1C(=O)c1ccco1` (stereo unspecified) was inactive: 108%; that for `Nc1ncc(S(=O)(=O)Nc2ccc(F)cc2F)cn1` was inactive: 82%.
